Assay results from PMC10726135.
The other results are listed elsewhere or left out. At the low end of the ranking the order means little. The protein was read in a cell extract, so binding may be indirect.

Each sequence was assayed against T1, HNF4alpha2 (COS-7 nuclear extract) (UniProt P41235) (assay: protein-binding microarray). Settings: COS-7 nuclear extract on double-stranded Agilent 4x180k PBM; binding buffer, salt, pH and temperature not given; high values mean tight binding; double strand, one strand shown; sequences stand for … in …GCCTAGGGAGATTAGAGTATCGGTCGA.
T1 sequence: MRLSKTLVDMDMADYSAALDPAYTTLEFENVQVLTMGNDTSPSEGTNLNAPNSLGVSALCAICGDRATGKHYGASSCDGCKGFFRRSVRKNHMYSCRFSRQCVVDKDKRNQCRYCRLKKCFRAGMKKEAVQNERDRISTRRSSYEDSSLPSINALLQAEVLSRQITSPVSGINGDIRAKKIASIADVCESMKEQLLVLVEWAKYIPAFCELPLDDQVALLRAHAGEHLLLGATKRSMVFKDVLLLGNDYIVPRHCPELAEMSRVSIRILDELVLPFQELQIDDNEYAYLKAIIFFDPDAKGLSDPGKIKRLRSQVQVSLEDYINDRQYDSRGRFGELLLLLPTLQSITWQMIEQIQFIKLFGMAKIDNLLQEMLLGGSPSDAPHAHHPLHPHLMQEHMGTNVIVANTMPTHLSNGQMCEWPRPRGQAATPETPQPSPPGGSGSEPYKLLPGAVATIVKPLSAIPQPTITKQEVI

Row | Sequence | binding signal (log2 normalized intensity)
1 | GGAGCATGATGAAATTTCCTCTTACCACAT | -1.07
2 | TAAATAGTGACAAATTGTATAGTTGCTGAT | 0.637
3 | CAGCCAGCCTGAGGCAGTTGGAAAATATTT | -1.18
4 | GAATAGTTAAGTAACGTGTCAGAGGTCACT | 3.2
5 | TGCTCCAGCCAGAGGCCTTATCTGGCCGCC | -1.07
6 | TGTGTACTCTATCCAGTAGAGGGCATAGCA | 1.72
7 | TTGTTTTAAGTTCATAGGTCCTCTTGGAAG | 1.34
8 | CTGGCAGAATTCCTTCTTGCTTAGGATAGG | -1.14
9 | AAAGTTCAAGTCATAACTGGATGGTGCCTA | -1.13
10 | TAGACCTGGCCTCGGGGAGCTGTGGGCCTC | -0.249
11 | TAGGGACCGCAAATAAAAGAGGGCCCCATC | -1.03
12 | GTGACCTCTTATCTCATCCTGTGACCAAGA | 1.11
13 | GGTCATTTGTTTTTACAGACAGGCATGACA | 1.37
14 | CAGAGACGGCAAGCCATAGTTAACCCAGAA | -0.915
15 | TCCACACCCCAGCCTGCCCTCCTAGGGACA | 3.39
16 | CAGCCCTCCTCTCTGTAGTCCTCAGCAATA | 0.713
17 | ACCAAGGACAAACTGAGGAGGACATACTCC | -1.06
18 | TGTGTACGGACGCATCTGTCGGCTCTCGTA | -0.918
19 | GACAGATAAGAAGGGGTCAGACCAGACAGC | -0.316
20 | GACGTTCTGCCCCTTATCTTCTGGCCACCT | 1.91
21 | GACAGAAGCAGGACTTAAACACCAGTACTC | -1.14
22 | CGGAGGGCGGGGCGGGGCAGCAGGGAAGAG | -1.18
23 | AGCTAAATAAATAACTCTAAGAAATAGGTT | -1.26
24 | AAACGTTCTTCTCTAACCCTCCTTTTAATC | 1.36

Row | Sequence | binding signal (log2 normalized intensity)
25 | CAACATGTGGGCAAATAGGATTAGGAAACC | -0.788
26 | CCAGTTAATGCTGAACTTTAGCTCACTGTT | 1.77
27 | GTAACTATGGGGCAAAGTGCAAGCAAACAT | 2.56
28 | GATTTTCAGGTTCCCCAGTGAGGATGTGTG | 1.93
29 | TGCCCCCGATAGCACTATTAGTCTTAGATT | 1.99
30 | ATGTCTCCAGAAACCAACCTTTGATCATTC | 4.87
31 | GCCCACTCCTCCCTCAGGGATCTTTGCACT | 2.45
32 | AGGGTCAAAGGGTCAAGTTCAGATCCTGGC | 4.58
33 | GTCAAACTGGTTTCTTGTCTGCCCCAGGGC | 2.34
34 | TTTAGGCTGTCAGCCACCAAAGCAGCTAGC | -1.05
35 | GTCAAGCAATGATCTTCATGAACTTCTGTC | 1.26
36 | CCACAAGGGTTTAAATCTGACTGCACTGCA | -1.02
37 | GTGCTGGGATTACAGGCGTGAGCCACCGCG | -1.01
38 | TAATCTTCACTAGACCTAGATAAGGGAGAT | -1.12
39 | TGTTCTAGCTCGGGGGCCCTTCCCCCCTCT | 2.64
40 | TGACCACATGCCCTCAGTACAGGGCGTCCT | -0.194
41 | ATATTCTCTCGTCACCTCCACCCACCCGTG | 4.48
42 | TATTAGAGTCCCTTTTTTAGACAAGGAAAA | 0.595
43 | AGAAAGGCAGAAAACTCAGATTCCTATGGT | -0.875
44 | GTCACTCCCACCCTTCCTGTTATGTTTTTT | 2.11
45 | GGACTTGGGACTTTCGAGTTAATGCTGGAG | 2.54
46 | CCAGGTGTAGATAAACTGGAAAGGGCTTCA | -1.18
47 | TTGTTGACATCTGCTTCCAAAGAGCTCAAC | -0.7
48 | GTTCTGGACTTCTCTGCCCTCTTCCCTCTA | 2.62

Row | Sequence | binding signal (log2 normalized intensity)
49 | AAAGGTCTGCTGTACATATTTGCCAAGTGA | 1.39
50 | TTACAAAGGTCACACACCTGTGCAAACATT | 0.854
51 | AGTTGGTGAGAACAGAGTCTCCGAGGAACC | -1.13
52 | CTTCCTGGCCCTAGCTGGGTTTTTCAAAGG | 0.868
53 | CAAAGGTCAGGACAAGGCTCTGGTGGGGAA | 1.36
54 | GGGATGTTTGGCAGCTGAGGATTGTCAGGC | 0.513
55 | CCCCTTCTGAGTCTCCAATGTCCATTATAT | 1.37
56 | ACAAGAGGAATGTTCATTCATTCACCTTTC | 0.817
57 | GGCGCGCGGGCCGGGAGGGGGACGCTTTCT | -1.18
58 | CAAACTTCTCCACTCTTCATAATTACCATT | 0.957
59 | TCTGAGGGCCAGCAGTGCCCAAAGCCCAAG | -1.17
60 | AATGTGATAGACAGGATGCCTGAGTAATTA | -0.305
61 | CATTCCATTACTGCAGAGGCTGGTTCACAC | 1.06
62 | TACAGAGGCTCTGAGAGTCTCAGTGACTCA | -1.24
63 | CTGTTATCAGAGCTGGAGGAGACCTTTGGA | 5.09
64 | CAGCAGACTCAGAAAAATATGTGGACTTCA | 2.49
65 | TAAAGTTCATTGCTTTGAGCATGAGAGTTC | 0.748
66 | TTGCTTGTGAATGAAAGAGACTAGTATGTA | 0.445
67 | GGCGCGCCTGCCCTTCGCTCCCCGACCTCC | 3.78
68 | CTGAGCTAAGATAACCATCAAATCCTCGGA | -1
69 | ATATAAAAACTAACCATACTGAGTGTTGGT | 0.741
70 | TGTGTGTGTGTGTGTGTGTGTGTGTATGCC | 3.17
71 | GTGGAGCAGCTTTCTCTGCACACACTCACA | -1.09
72 | GAGCCAAGGGAGCACAACCCGGGCGCACAA | -1.05
